Data reported in PubChem BioAssay AID360 (National Center for Advancing Translational Sciences (NCATS), 2006).
Out of some 48,000 compounds screened, about 550 (1.1%) were called active. Another 4% or so got no clear call; they are omitted. Rule as the data show it: active = potency below about 15 µM; inconclusive = mostly about 16 µM to 33 µM; inactive = weaker than that. Some of the results follow.

target: Lysosomal acid glucosylceramidase (Homo sapiens) (UniProt P04062); assay: Glucocerebrosidase; conditions: purified enzyme, resorufin glucoside fluorescence (screen aimed at inhibitors), 20 min;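 also: the screen sought inhibitors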
Outline: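 Normal human glucocerebrosidase (0.2 nM final) was assayed with resorufin β-D-glucopyranoside (30 uM final) in 50mM citric acid/KH2PO4, 10mM sodium taurocholate, 0.01% tween-20, pH 5.9. Compounds were titrated; fluorescence (Ex 548, Em 600) read after 20 min at RT.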
Potency is read from the fitted curve at half-maximal effect.

Sequence of UniProt P04062 (P04062 whole entry, looked up): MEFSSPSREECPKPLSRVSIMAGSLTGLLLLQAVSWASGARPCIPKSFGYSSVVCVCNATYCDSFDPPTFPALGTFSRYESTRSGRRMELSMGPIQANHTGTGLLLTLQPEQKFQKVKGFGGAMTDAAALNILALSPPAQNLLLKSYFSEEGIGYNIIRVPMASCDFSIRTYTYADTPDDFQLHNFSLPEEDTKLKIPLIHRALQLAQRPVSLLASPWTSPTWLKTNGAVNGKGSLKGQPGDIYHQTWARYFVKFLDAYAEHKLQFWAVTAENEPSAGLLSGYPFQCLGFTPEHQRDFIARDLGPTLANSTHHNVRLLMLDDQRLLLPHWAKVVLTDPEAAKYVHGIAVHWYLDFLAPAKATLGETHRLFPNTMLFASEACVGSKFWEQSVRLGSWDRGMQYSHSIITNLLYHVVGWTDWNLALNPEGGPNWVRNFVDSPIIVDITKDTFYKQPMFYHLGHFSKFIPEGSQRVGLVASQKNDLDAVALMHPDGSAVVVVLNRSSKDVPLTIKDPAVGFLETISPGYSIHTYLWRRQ

Potency, inactive:
COc1ccc(C(=O)N2CCCCC2)cc1S(=O)(=O)Nc1ccccc1 > 76.9 µM, Cc1cc(=O)c2cc(Cl)ccc2[nH]1 > 76.9 µM, COc1ccccc1C(O)P(=O)(OC(C)C)c1ccc(N(C)C)cc1 (configuration not stated) > 76.9 µM, CC(C)C(=O)N(Cc1ccc2c(c1)OCO2)Cc1ccccn1 > 76.9 µM, CCSc1nnc(NC(=O)C2CCCCC2)s1, CCOC(=O)Cn1c(N2CCOCC2)nc2c1c(=O)[nH]c(=O)n2C > 76.9 µM, Cc1ccc(-n2c(SCc3nnc4n3CCC4)nnc2-c2ccccc2)cc1 > 76.9 µM, CCCC(c1nnnn1Cc1ccco1)N1CCN(C2CCCC2)CC1 (configuration not stated) > 76.9 µM, CCCCN(CC)S(=O)(=O)c1ccc(C(=O)Nc2nnc(-c3cccs3)o2)cc1 > 76.9 µM, Nc1n[nH]c(-c2ccc(F)cc2)n1 > 76.9 µM, CC(NS(=O)(=O)c1ccccc1)C(=O)Nc1nccs1 (configuration not stated) > 76.9 µM, Cc1ccc(C(=O)CSc2nnc(-c3ccccc3)n2-c2ccccc2)o1 > 76.9 µM, Cc1cccc(-n2nnnc2SCC(=O)NCCN2C(=O)CSC2=O)c1 > 76.9 µM, Cn1c(SCC(=O)NC(C)(C)C)nc(O)cc1=O > 76.9 µM, Cc1nc(NC(=O)CCCC(=O)Nc2nc(C)c(C)s2)sc1C > 76.9 µM, CCOCCN(C=O)c1cccc(OC)c1 > 76.9 µM, COCCN1CCn2c(nc3cc(NC(=O)NC4CCCCC4)ccc32)C1, COC(=O)Nc1ccc(S(=O)(=O)N(C)CC(F)(F)C(F)F)cc1 > 76.9 µM, COC(=O)c1sc(NC(=O)c2csc3c2CCCC3)nc1C > 76.9 µM, O=C1CC(Cc2ccccc2)C(=O)N1c1ccc(Cl)cn1 (configuration not stated) > 76.9 µM, CN(C)CCCN1C(=O)C(=O)/C(=C(/O)c2ccc3c(c2)OCO3)C1c1ccco1 (configuration not stated) > 76.9 µM, Cc1cc(C)nc(N2CCC(C(=O)NC3CCCCCC3)CC2)n1 > 76.9 µM, CCn1c(NCc2cc(OC)ccc2OC)nc2ccccc21 > 76.9 µM, CCOCCCNC(=O)c1ccc2c(c1)ncn2C1CCCC1 > 76.9 µM, CC(C)N(Cc1nc(-c2ccccc2)no1)C(=O)CN(C)S(=O)(=O)c1ccccc1 > 76.9 µM, Nc1nc(CSc2nc3ccccc3[nH]2)nc(N2CCOCC2)n1 > 76.9 µM, Cc1cccc(S(=O)(=O)C(C#N)c2nc3ccccc3nc2N2CCOCC2)c1 (configuration not stated) > 76.9 µM, Cc1c(Nc2ncnc3c2cnn3-c2ccccc2)c(=O)n(-c2ccccc2)n1C > 76.9 µM, O=C1C2=C(c3ccccc31)[N+](=O)[C@@H]1CCCC[C@@H]1N2[O-] > 76.9 µM, C=CCn1c(C(C)NC(=O)C(C)(C)C)nc2ccccc21 (configuration not stated) > 76.9 µM, O=C(NCc1cccs1)C1CC(=O)N(C2CCCC2)C1 (configuration not stated) > 76.9 µM, COc1ccccc1-c1noc(-c2ccccc2C(=O)N2CCOCC2)n1 > 76.9 µM, O=C1COc2ccc(C(=O)COC(=O)Cn3cnc4ccccc43)cc2N1 > 76.9 µM, COc1cc(C(=O)NCCC(=O)NCCN2CCCCCC2)cc(OC)c1OC > 76.9 µM, O=C(NCc1ccccc1)c1cc(-c2ccco2)on1 > 76.9 µM, COc1ccc(C(C)N2CC34C=CC(O3)C(C(=O)O)C4C2=O)cc1 (configuration not stated) > 76.9 µM, Cc1ccc(NC(=O)c2cc(-c3ccco3)on2)cc1C > 76.9 µM, CCSc1nc2c(c(=O)n1-c1ccc(F)cc1)SCC2 > 76.9 µM, COc1ccc2[nH]c(=O)c3c(c2c1)OC(C)(C)C=C3 > 76.9 µM, CCOC(=O)N1CCC(NC(=O)c2ccc(NC(=O)C3CCCO3)cc2)CC1 (configuration not stated) > 76.9 µM, O=C(NCc1ccco1)c1cc(-c2ccccc2)on1 > 76.9 µM, COC(=O)COc1ccc(S(=O)(=O)NCCC2=CCCCC2)cc1 > 76.9 µM, Nc1nc(CSc2nnnn2-c2ccccc2)nc(N2CCCc3ccccc32)n1 > 76.9 µM, Cc1cc(C(F)(F)F)nc(SCc2ccc(C(=O)O)o2)n1 > 76.9 µM, O=C(O)c1ccccc1C1=Nc2ccc(O)cc2Oc2cc(O)ccc21 > 76.9 µM, COCCNC(=O)c1ccccc1NC(=O)COc1ccccc1 > 76.9 µM, CC(C)NC(=O)CN1CCN(c2ncccn2)CC1 > 76.9 µM, C=CCN1C(=O)c2ccccc2Sc2ccc(C(=O)N3CCN(C)CC3)cc21 > 76.9 µM, Cc1cc(C)n2nc(SCn3nnc4ccccc4c3=O)nc2n1 > 76.9 µM, COCCn1c(SCC(=O)Nc2nnc(C)s2)nnc1-c1ccncc1 > 76.9 µM, COc1ccc(Cl)cc1-c1nc(-c2ccc(NC(=O)c3ccncc3)cc2)no1 > 76.9 µM, O=C(COc1ccc(F)cc1)N(CC1=CCS(=O)(=O)C1)c1ccccc1 > 76.9 µM, COc1ccc(CCNC(=O)CSc2nnc(CNc3ccc(Cl)cc3)o2)cc1OC > 76.9 µM, Cc1ccc(C)n1-c1ccc(C(=O)NCC2CCCO2)cc1 (configuration not stated) > 76.9 µM, CCOC(=O)c1cnc(=O)[nH]c1C > 76.9 µM, CS(=O)(=O)N1CCCC(C(=O)NCc2cccs2)C1 (configuration not stated) > 76.9 µM, COc1ccc(-n2nc(C(=O)NCc3ccco3)c3c4ccccc4n(C)c3c2=O)cc1 > 76.9 µM, O=C(CC(C(=O)N1CCc2ccccc21)n1ccnc1)NCc1cccnc1 (configuration not stated) > 76.9 µM, c1ccc2[nH]c(NCCCN3CCOCC3)nc2c1 > 76.9 µM, COc1cc2c(cc1OC)C(C(=O)Nc1cccc(C)n1)C(c1cccnc1)N(C)C2=O (configuration not stated) > 76.9 µM, Cc1cc(C(=O)CC#N)c(C)n1CC(F)(F)F > 76.9 µM, O=C(Cc1ccsc1-c1ccccc1)NO > 76.9 µM, Cc1cc(C)cc(NC(=O)CN(C)S(=O)(=O)c2cccc3nsnc23)c1 > 76.9 µM, CC(C)OP(=O)(c1ccc(N(C)C)cc1)C(O)c1ccccc1F (configuration not stated) > 76.9 µM, CCOc1ccc(-c2nn3c(-c4ccc(F)cc4)nnc3s2)cc1 > 76.9 µM, c1ccc(COc2cccc(CNn3cnnc3)c2)cc1 > 76.9 µM, CCN(CCCNC(=O)C1CCCN(S(=O)(=O)CC)C1)c1cccc(C)c1 (configuration not stated) > 76.9 µM, CSc1cccc(NC(=O)c2c(Cl)cnn2C)c1 > 76.9 µM, COc1cc2c(C#N)c(N3CCN(c4ccccc4OC)CC3)nc(N)c2c(N)n1 > 76.9 µM, CCOC(=O)CNC(=O)Cn1cnc2ccc(S(=O)(=O)N3CCC(C)CC3)cc2c1=O > 76.9 µM, O=C(NCc1cccnc1)C1CCCN(S(=O)(=O)c2ccc(Cl)cc2)C1 (configuration not stated) > 76.9 µM, Cc1ccc2c(c1)N(CCC(=O)NCc1ccccn1)C(=O)CO2 > 76.9 µM, COC(=O)CN(c1ccccn1)S(=O)(=O)c1ccccc1 > 76.9 µM, CCN(CC)C(=O)C1CCN(Cc2ccc(Br)cc2)CC1 > 76.9 µM, COC(=O)c1c(C)cc(C)n2c1nc1ccccc12 > 76.9 µM, CC1CCCCC12NC(=O)N(Cn1nnc3ccccc3c1=O)C2=O (configuration not stated) > 76.9 µM, CCOC(=O)c1ccccc1NC(=O)c1ccccc1N(C)S(C)(=O)=O > 76.9 µM, Cn1c(=O)c(C#N)c(-c2ccccc2)n2cnnc12 > 76.9 µM, NC(=O)Nc1ccc(Oc2c(F)c(F)c(F)c(F)c2F)cc1 > 76.9 µM, O=C(CSc1ccc2nnc(-c3cccc(F)c3)n2n1)NCc1ccco1 > 76.9 µM, CCCOc1ccc(-c2nnc(-c3ccco3)o2)cc1 > 76.9 µM, Cc1cc(C)n(C(=O)c2ccc(NC(=O)C3COc4ccccc4O3)cc2)n1 (configuration not stated) > 76.9 µM, COc1ccc2c(=O)c3c(=O)n(Cc4ccco4)c(-c4ccc(C)cc4)nc3oc2c1 > 76.9 µM, COc1ccc(Oc2cn[nH]c2-c2ccc(O)cc2O)cc1 > 76.9 µM, Cc1ccc(C(=O)Nc2ccccc2N2CCN(C(=O)C(C)C)CC2)cc1 > 76.9 µM, O=c1c2ccccc2n(Cc2ccc(Cl)cc2)c(=O)n1Cc1ccco1 > 76.9 µM, CCn1c(CSc2nnc(-c3ccoc3C)n2C)nc2cc(S(=O)(=O)N(C)C)ccc21 > 76.9 µM, CCSc1nnc(-c2cccc(S(=O)(=O)N(C)C)c2)n1-c1cc(OC)ccc1OC > 76.9 µM, CCOC(=O)c1cccc(NC(=O)CCS(=O)(=O)c2cccc3nsnc23)c1 > 76.9 µM, CCOc1ccccc1C(=O)N(CN1CCCC1=O)c1ccc(C)c(Cl)c1 > 76.9 µM, Cc1ccc(NC(=O)COC(=O)Cn2c(C)csc2=O)cc1C > 76.9 µM, CCC(=O)N1CCN(c2cc(C)ccc2C)CC1 > 76.9 µM
